From PubChem BioAssay AID1347120 (National Center for Advancing Translational Sciences (NCATS), 2019)
The campaign covered roughly 390,000 compounds. About 930 (0.24%) were called active. Inconclusive means that the source gave no clear call. Such entries were picked first, then a sample of the others. Calls come from the whole dose curve; as a rule, active = well fitted activation curve with a large enough effect; inconclusive = small, poorly fitted or top-dose-only effect; inactive = no such curve, though single readings can be large or run the other way. Where the call is inconclusive, the potency comes from a doubtful curve fit.
Potency is the fitted concentration of half-maximal effect; tags give direction and shape of the fitted curve.

Assay: qHTS for Suppressors of FUS Proteinopathy: Primary screen using FUS-linked yeast assay; note: nearly all actives have a fitted effect of over 55% in size;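 for growth rescue (activation): plate controls were DMSO vehicle for no effect and reference control for full effect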
Details: S. cerevisiae FUS-expressing, OD600, 24 h; Potency: growth rescue; growth rescue (activation): at 76.6 µM (top of the series)
Method in brief: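 Yeast FUS proteinopathy model; galactose-induced FUS (2%), starting OD 0.005. Cpds in dilution series, 24hr, 30C, 99% humidity. Abs 600 nm growth. Pos ctrl CP55940 (top 92uM final); neg ctrl DMSO.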
In the case of CCOC(=O)C1CCN(c2cc3c(cc2NC(=O)c2ccccc2Br)n(C)c(=O)n3C)CC1, the “growth rescue (activation)” value is reported as inactive: 6.5%. In the case of C=CCC[C@H](Cc1ccc(F)cc1)C(=O)OC[C@H](Cc1c[nH]c2ccccc12)NC(=O)[C@H](CC=C)CC(=O)NCCO, the Potency is reported as inconclusive: 31.6 µM [activator, single point]. With Cc1[nH]n(-c2ccccc2)c(=O)c1C(=O)Nc1ccccc1 the Potency was inconclusive: 17.8 µM [activator, partial curve, poor fit]. In the case of CCOc1ccc(Cl)cc1-c1cc(C(=O)NC2CCCCC2)[nH]n1, the Potency is reported as inconclusive: 28.2 µM [activator, single point]. In the case of COc1ccc(OC)c(CNC(=O)CCCn2nc(C)c3c(C)n(-c4ccc(C)cc4)nc3c2=O)c1, the “growth rescue (activation)” value is reported as inactive: 0.888%. For C[C@H](c1ccccc1)N1C[C@H](COCc2ccccc2)Oc2cc(N3CC[C@@H](O)C3)ccc2S1(=O)=O, the Potency was inconclusive: 12.6 µM [activator, partial curve, poor fit]. For Cc1ccc(NC(=O)C(C)OC(=O)c2ccc(NC(=O)CC#N)cc2)cc1S(=O)(=O)N1CCOCC1 (configuration not stated), the Potency was active: 14.1 µM. For CCCNC(=O)C1(C)CCCN(C(=O)Cc2ccc(OC)c(OC)c2)C1 (configuration not stated), the “growth rescue (activation)” value was inactive: -25.9%. For Cc1ccc(-c2nc(CS(=O)(=O)CC(=O)N3CC(C)CC(C)C3)c(C)o2)cc1 (configuration not stated), the Potency was inconclusive: 28.2 µM [activator, single point]. With CCOc1ccc(-c2cc(NC(=O)c3ccc(C)cc3)c(C(=O)OC)s2)cc1 the “growth rescue (activation)” value was inactive: -3.41%. In the case of O=C1c2ccccc2C(=O)C1Cc1cccc2ccccc12, the Potency is reported as inconclusive: 44.7 µM [activator, partial curve, poor fit]. With CN(CC(=O)Nc1ccc(Cl)c(C(F)(F)F)c1)C(=O)CCC(=O)c1ccccc1 the Potency was inconclusive: 35.5 µM [activator, single point]. With CC(C)CN1C(=O)CSCC1(C)C(=O)NCc1ccccc1 (configuration not stated) the “growth rescue (activation)” value was inactive: -19.1%. With Cc1ccc(S(=O)(=O)NC(CC(=O)NCc2ccco2)c2ccco2)cc1 (configuration not stated) the “growth rescue (activation)” value was inactive: -7.69%. In the case of C=CCNc1nnc(Sc2ncccc2[N+](=O)[O-])s1, the “growth rescue (activation)” value is reported as inactive: 6.49%. With CCOc1ccccc1CNC(=O)c1cnc2sc(N3CCCC3)nn2c1=O the “growth rescue (activation)” value was inactive: 17%. In the case of COc1cc2c(cc1OC)C(C)N(C(=O)c1cc3c(s1)-c1ccccc1OC3)CC2 (configuration not stated), the Potency is reported as inconclusive: 17.8 µM [activator, single point]. In the case of Cc1cccc(-c2c3c(=O)n(C)c(=O)n(C)c3cn2C2CCCCC2)c1, the growth rescue (activation) is reported as inconclusive: 63.9% [activator]. With COc1ccc(CCNC(=O)c2cc(-c3ccccc3)c(N3CCOCC3)s2)cc1OC the Potency was inconclusive: 28.2 µM [activator, single point]. With COc1cccc(C(=O)N/N=C(\C)CC(=O)Nc2ccc(N(C)C)cc2)c1 the Potency was inconclusive: 31.6 µM [activator, partial curve, poor fit]. For COc1ccc(NC(=O)N[C@H]2C=C[C@@H](CC(=O)NC3CCC3)O[C@@H]2CO)cc1, the “growth rescue (activation)” value was inactive: -13.9%. With NS(=O)(=O)c1ccc(N2N=C(c3ccccc3)CC2c2ccc(Br)cc2)cc1 (configuration not stated) the Potency was inconclusive: 44.7 µM [activator, single point]. For O=C(Nc1ccc(N2CCN(C(=O)c3ccc(Cl)cc3)CC2)cc1)c1ccc(Br)o1, the Potency was inconclusive: 25.1 µM [activator, partial curve, poor fit]. With CCc1ccc(-n2nc(C)c3c(C(=O)NCCc4ccc(OC)c(OC)c4)cc(C)nc32)cc1 the Potency was inconclusive: 31.6 µM [activator, single point]. With Cc1cccc(N(Cc2ccccc2)C(=O)CN2C(=O)NC3(CCCCC3C)C2=O)c1 (configuration not stated) the Potency was inconclusive: 22.4 µM [activator, single point]. In the case of COc1cc(NS(=O)(=O)c2ccc(NC(=O)COc3ccccc3C)cc2)nc(OC)n1, the Potency is reported as inconclusive: 50.1 µM [activator, single point]. With CCOc1ccc(C(=O)CSc2nnc(SCc3ccc(Cl)cc3)s2)cc1 the “growth rescue (activation)” value was inactive: -1.37%. With COc1cc(NC(=S)Nc2ccc(N(C)C(C)=O)cc2)cc(OC)c1 the Potency was inconclusive: 35.5 µM [activator, partial curve, poor fit]. For Cc1ccc(N(CC(=O)N2CCN(c3ccc(Cl)cc3)CC2)S(=O)(=O)c2c(C)noc2C)cc1, the “growth rescue (activation)” value was inactive: 7.26%. In the case of COc1ccc(S[C@]2(C(=O)N(C)C)CC(=O)N(c3ccc(Cl)cc3)[C@@H]2c2ccc(OC)cc2)cc1, the Potency is reported as inconclusive: 31.6 µM [activator, single point]. For COC(=O)c1ccc(C23CC4(C2)[C@H](CN(C)[C@@H]4c2ccccc2)C3c2ccc(C(F)(F)F)cc2)cc1 (some centres not stated), the Potency was inconclusive: 15.8 µM [activator, partial curve]. In the case of COC(=O)CSc1nnc2n1C(C)(C)Cc1ccccc1-2, the “growth rescue (activation)” value is reported as inactive: 17.8%. For CCC1CCCCN1C(=O)c1nn(-c2ccc(C)cc2)c(=O)c2c1c1ccccc1n2C (configuration not stated), the Potency was inconclusive: 3.98 µM [activator, single point]. In the case of CC(=O)Nc1ccc(S(=O)(=O)N=S(C)(C)=O)cc1, the “growth rescue (activation)” value is reported as inactive: -2.52%. In the case of CCC(/C=C1\Sc2ccc(OC)cc2N1CCO)=C\c1sc2ccc(OC)cc2[n+]1CCO, the Potency is reported as inconclusive: 5.62 µM [activator, full curve, poor fit]. For Cn1ncc2c(Nc3cccc(Cl)c3)nc(Nc3cccc(Cl)c3)nc21, the Potency was inconclusive: 28.2 µM [activator, single point]. In the case of CCn1c(SCC(=O)NN=Cc2cc(OC)ccc2OC)nnc1-c1ccc(OC)cc1, the “growth rescue (activation)” value is reported as inactive: 8.68%. With CCN1C(c2ccc(F)cc2)=CS/C1=C(\C#N)c1nnc2n1-c1ccccc1SC2 the “growth rescue (activation)” value was inactive: 0.0304%. For CCN(c1ccccc1)S(=O)(=O)c1ccc(F)c(C(=O)Nc2ccc(C)cc2)c1, the Potency was inconclusive: 15.8 µM [activator, single point]. With COc1ccc(CNn2c(-c3cccs3)nc3ccccc3c2=O)cc1OC the Potency was inconclusive: 31.6 µM [activator, partial curve, poor fit]. In the case of Cn1nc(C(C)(C)C)cc1C(=O)N1CCCCC1c1cc(C(=O)Nc2ccc(F)c(Cl)c2)no1 (configuration not stated), the Potency is reported as inconclusive: 31.6 µM [activator, partial curve, poor fit]. In the case of C=CCOc1ccc(C2C(C(=O)c3ccc(C)o3)=C(O)C(=O)N2Cc2cccnc2)cc1 (configuration not stated), the Potency is reported as inconclusive: 28.2 µM [activator, single point]. In the case of CC[C@@]12C(=O)N(c3ccccc3)C(=O)N1[C@H](c1cccc(C)c1)[C@@H]1C(=O)N(Cc3ccccc3)C(=O)[C@@H]12, the Potency is reported as inconclusive: 28.2 µM [activator, single point]. In the case of COC(=O)[C@@]12C[C@@H](CC(=O)NCc3cccc(C(F)(F)F)c3)C(=O)N(Cc3cccc4ccccc34)C1=CCC(C)(C)C2, the Potency is reported as inconclusive: 39.8 µM [activator, single point]. With CCN(CC1CCCO1)C(=O)c1cc(COc2cc(C)c(Cl)c(C)c2)on1 (configuration not stated) the Potency was inconclusive: 31.6 µM [activator, single point]. With CCCCOC(=O)c1ccc(Nc2nc3ccccc3c3nnc(C)n23)cc1 the “growth rescue (activation)” value was inactive: 17.4%. In the case of CCOC(=O)c1ccc(N2CSC3=C(C#N)C(c4ccc(OC)cc4OC)CC(=O)N3C2)cc1 (configuration not stated), the Potency is reported as inconclusive: 44.7 µM [activator, single point]. With COCCN(C(=O)COC(=O)C1CCC(C(C)(C)C)CC1)c1c(N)n(Cc2ccccc2)c(=O)[nH]c1=O (configuration not stated) the Potency was inconclusive: 31.6 µM [activator, partial curve, poor fit]. For COc1ccccc1-n1c(C)c(C(=O)O)c2cc(OC)c3ccccc3c21, the Potency was inconclusive: 28.2 µM [activator, single point]. In the case of Cc1ccsc1-c1nc(CSCC(=O)N2CCN(c3ccccc3)CC2)c(C)o1, the “growth rescue (activation)” value is reported as inactive: 35.9%. In the case of CCOc1ccccc1N=c1oc2cc(O)ccc2cc1C(=O)NCC1CCCO1 (configuration not stated), the Potency is reported as inconclusive: 0.794 µM [activator, partial curve, poor fit]. For O=C1CC(c2ccc(F)cc2)CC2=C1C(c1ccc([N+](=O)[O-])o1)Nc1ccccc1N2 (configuration not stated), the Potency was inconclusive: 28.2 µM [activator, partial curve]. With O=C(c1cccc(S(=O)(=O)N2CCCCC2)c1)N1CCc2ccccc21 the Potency was active: 2.82 µM. For Cn1c(=O)c2sccc2n2c(CCC(=O)N3CCN(c4cccc(Cl)c4)CC3)nnc12, the “growth rescue (activation)” value was inactive: 6.76%. For CC1=NN(c2ccc(Cl)cc2)C(=O)C1C(c1ccccc1O)c1c(C)[nH]n(-c2ccc(Cl)cc2)c1=O (configuration not stated), the Potency was inconclusive: 25.1 µM [activator, single point]. In the case of COc1ccc(-c2c(-c3ccc(OCC(=O)NN)cc3O)n[nH]c2C)cc1, the Potency is reported as inconclusive: 50.1 µM [activator, single point]. For C[C@]12C(=O)N(c3ccccc3)C(=O)N1[C@H]1c3ccccc3OC[C@@H]1[C@H]2c1ccccc1, the Potency was inconclusive: 20 µM [activator, partial curve]. With Cn1cc(-c2cc3n(n2)CCC(=O)N3CCCC(=O)Nc2ccc(F)cc2F)c2ccccc21 the Potency was inconclusive: 35.5 µM [activator, single point]. With CC1=Nc2cccc3cccc(c23)N1 the Potency was inconclusive: 39.8 µM [activator, partial curve, poor fit]. In the case of COc1cc(CNc2ncnc3c2ncn3[C@H]2CN(Cc3cccc(C(F)(F)F)c3)C[C@@H](COC(C)=O)O2)cc(OC)c1OC, the Potency is reported as active: 20 µM. With CCOC(=O)[C@]12CCCC=C1N(Cc1ccc3c(c1)OCO3)C(=O)[C@H](CC(=O)NCCCCc1ccccc1)C2 the Potency was inconclusive: 35.5 µM [activator, single point]. In the case of COC(=O)[C@]12C[C@H](CC(=O)NCC3CCCCC3)C(=O)N(Cc3ccco3)C1=C[C@H](C1CCCC1)O[C@@H]2C, the Potency is reported as inconclusive: 5.62 µM [activator, full curve, poor fit].
